This assay has as its system cap-dependent translation initiation. The experiment in a line: Cap-dependent translation of FF/HCV/Ren mRNA in Krebs-2 extracts. As to conditions: Krebs-2 extracts programmed with FF/HCV/Ren mRNA. An excerpt: FIG. 5. Hippuristanol inhibits cap-dependent translation initiation. A. Schematic diagram of FF/HCV/Ren mRNA. B. Titration of hippuristanol in Krebs-2 extracts programmed with FF/HCV/Ren mRNA. SDS-PAGE analysis of in vitro translations performed in Krebs-2 extracts in the presence of ^35S-methionine. The addition of hippuristanol and vehicle to the translation reaction is shown above the panel. C. Graphical representation of the effects of hippuristanol on the translation of FF/HCV/Ren mRNA in Krebs-2 extracts. The results shown are the average of 3 experiments. D. Effect of hippuristanol on cap-dependent and HCV IRES-mediated translation in vivo. Following transfection with pcDNA/Ren/HCV/FF, 293 cells were incubated with the indicated concentrations of hippuristanol for 10 hrs. Luciferase activity was measured from cell extracts and is expressed relative to vehicle (DMSO) treated cells. […]
FIG. 12 Structure-Activity Relationship of hippuristanol congeners. A. The chemical structure of the hippuristanol congeners is presented along with the IC50 determined for inhibition of cap-dependent translation in Krebs-2 extracts programmed with FF/HCV/Ren mRNA. […]
In vitro translations were performed using Krebs-2 extracts at a final mRNA and K^+ concentration of 5 μg/ml and 100 mM, respectively (33). Firefly and renilla luciferase activities (RLU) were measured on a Berthold Lumat LB 9507 luminometer. […]

For `C[C@H]1C[C@@]2(O[C@H]3C[C@H]4[C@@H]5CC[C@H]6C[C@H](O)CC[C@]6(C)[C@H]5[C@@H](O)C[C@]4(C)[C@H]3[C@@]2(C)O)OC1(C)C` [Hippuristanol, hippuristanol], the cap-dependent translation initiation result is listed as “inhibits”.
